# Test results taken from PubChem BioAssay AID624296 (National Center for Advancing Translational Sciences (NCATS), 2012).
# Out of some 350,000 compounds screened, about 9,900 (2.8%) were called active. Inconclusive means that the source gave no clear call. Such entries were picked first, then a sample of the others. Calls come from the whole dose curve; as a rule, active = well fitted activation curve with a large enough effect; inconclusive = small, poorly fitted or top-dose-only effect; inactive = no such curve, though single readings can be large or run the other way. No potency is given beside an inconclusive call; the fits are too rough.
# Assay: A quantitative high throughput screen for small molecules that induce DNA re-replication in MCF 10a normal breast cells. For activity, positive = re-replication: % of control where 0% means no effect. Note: nearly all actives have a fitted effect of over 50% in size.
# Details: MCF 10A DNA re-replication, Hoechst nuclear intensity, 48 h; activity, positive = re-replication: at 46.1 µM (top of the series)
# Potency is the fitted concentration of half-maximal effect; tags give direction and shape of the fitted curve.
SMILES,Potency,"activity, positive = re-replication"
CS(=O)(=O)Nc1ccccc1C(=O)Nc1ccccc1Cl,"inconclusive [activator, partial curve, poor fit]",
COc1ccc(-c2nc(=S)c3c(n2CCN2CCOCC2)CC(C)(C)OC3)cc1,,inactive: -8.3%
CN(C)c1cc(-c2cccc(C(F)(F)F)c2)oc(=O)c1Cl,"inconclusive [activator, single point]",
CCCOc1ccc(C(=O)CCN2CCN(C(=O)OCC)CC2)cc1,"inconclusive [activator, single point]",
COc1ccccc1CN1[C@@H](CC(C)=O)c2cc(C(F)(F)F)ccc2S1(=O)=O,,inactive: -3.36%
CCOC(=O)c1c(NC(=O)COC(=O)c2ncc(Cl)c(Cl)c2Cl)sc(C(=O)N(C)C)c1C,,inactive: -1.99%
O=c1c2ccccc2ncn1-c1ccc([N+](=O)[O-])cc1[N+](=O)[O-],"inconclusive [activator, partial curve, poor fit]",
Cc1csc(SCC(=O)NC23CC4CC(CC(C4)C2)C3)n1,"inconclusive [activator, partial curve, poor fit]",
OCCCNc1nc(-c2ccccc2)c2cc(Cl)ccc2n1,active: 8.2 µM,
O=C(O)c1ccc(NC(=O)c2cccc(N3C(=O)C4C5CCC(C5)C4C3=O)c2)cc1 (stereo unspecified),,inactive: -7.57%
OCCN(Cc1ccccc1)Cc1ccc(Cl)cc1Cl,,inactive: 0.0089%
c1csc(-c2nc3ccccn3c2NC2CCCCC2)c1,"inconclusive [activator, single point]",
CC12CCC(C/C1=N\N=C1\NC(=O)/C(=C\c3ccc(Cl)cc3)S1)C2(C)C (stereo unspecified),active: 5.17 µM,
CCn1c(=O)cc(SCC(=O)NCc2ccco2)c2ccccc21,active: 3.66 µM,
O=C(Cc1ccc(Cl)cc1)SCc1ccccc1,,inactive: -2.99%
Cc1ccc(S(=O)(=O)N/N=C\c2ccccc2OCc2ccccc2)cc1,,inactive: -1.79%
O=C(CNc1ccc2ccccc2c1)N/N=C/c1ccncc1,"inconclusive [activator, partial curve, poor fit]",
COc1cc(CNCCc2ccc(S(N)(=O)=O)cc2)ccc1OCc1ccc(Cl)cc1,active: 13 µM,
COC(=O)c1cc(NS(=O)(=O)c2ccc(C(C)C)cc2)ccc1N1CCOCC1,"inconclusive [activator, full curve, poor fit]",
O=C(NCCN1CCOCC1)C1CC(=O)N(c2cccc(C(F)(F)F)c2)C1 (stereo unspecified),,inactive: -1.01%
COc1ccc(CN2CCCN(C)CC2)c(OC)c1C,"inconclusive [activator, partial curve, poor fit]",
